In article PMC4336329 (PLoS ONE, 2015):
In all, about 310,000 compounds went through this assay and about 14,000 (4.5%) showed an effect of 50% or more. The effect is printed as a negative number. The list shows a part of the results. Where a SMILES comes first, the peptide text is derived from it. [ ]: non-standard residue; d: D form. The star is where a group is joined. ξ: configuration not given here. Piv = CC(C)(C)C(=O)*; ξNva = CCCC(N)C(=O)O

The molecules below were run against human ether-à-go-go-related gene (hERG) potassium channel (human, UniProt Q12809) (assay: primary screen, population patch clamp on CHO cells stably expressing hERG).
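Further: peak tail current of the secondary pulse compared with the same well before compound.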

human ether-à-go-go-related gene (hERG) potassium channel, sequence (Q12809 whole entry, looked up): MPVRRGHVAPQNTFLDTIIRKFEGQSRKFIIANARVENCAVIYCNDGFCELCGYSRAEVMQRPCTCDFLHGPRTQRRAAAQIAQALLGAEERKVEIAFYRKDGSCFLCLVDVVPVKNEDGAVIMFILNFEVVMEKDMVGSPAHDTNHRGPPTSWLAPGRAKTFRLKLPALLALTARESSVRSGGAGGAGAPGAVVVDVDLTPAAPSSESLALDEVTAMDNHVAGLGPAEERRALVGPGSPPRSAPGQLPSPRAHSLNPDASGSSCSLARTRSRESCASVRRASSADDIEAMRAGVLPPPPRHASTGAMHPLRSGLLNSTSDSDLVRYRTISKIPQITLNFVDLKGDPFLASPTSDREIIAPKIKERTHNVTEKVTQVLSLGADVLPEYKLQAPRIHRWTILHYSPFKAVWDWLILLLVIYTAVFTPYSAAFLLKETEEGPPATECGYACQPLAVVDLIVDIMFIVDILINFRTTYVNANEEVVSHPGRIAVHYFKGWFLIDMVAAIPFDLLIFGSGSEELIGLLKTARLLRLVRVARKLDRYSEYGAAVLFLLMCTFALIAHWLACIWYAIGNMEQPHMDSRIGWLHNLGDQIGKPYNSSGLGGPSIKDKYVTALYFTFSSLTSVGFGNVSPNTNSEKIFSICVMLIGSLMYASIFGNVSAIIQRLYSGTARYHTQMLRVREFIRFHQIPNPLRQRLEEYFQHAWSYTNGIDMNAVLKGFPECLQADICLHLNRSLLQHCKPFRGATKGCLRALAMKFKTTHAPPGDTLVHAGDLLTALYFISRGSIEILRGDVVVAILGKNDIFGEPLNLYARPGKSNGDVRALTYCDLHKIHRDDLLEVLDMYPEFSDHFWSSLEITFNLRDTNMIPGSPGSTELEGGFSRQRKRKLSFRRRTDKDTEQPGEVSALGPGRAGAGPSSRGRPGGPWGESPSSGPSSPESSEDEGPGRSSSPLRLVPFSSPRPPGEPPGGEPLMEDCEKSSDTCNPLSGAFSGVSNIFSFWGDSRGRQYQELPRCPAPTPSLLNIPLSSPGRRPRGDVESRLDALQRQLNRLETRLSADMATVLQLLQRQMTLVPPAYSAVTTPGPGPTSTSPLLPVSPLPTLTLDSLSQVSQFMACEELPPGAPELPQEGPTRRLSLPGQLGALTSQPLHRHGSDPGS

First: O=C(CN1C(=O)c2ccccc2C1=O)N1CCN(C2c3ccccc3-c3ccccc32)CC1
Second: O=C(/C=C/c1ccc(NC(=O)c2ccccc2-c2ccccc2C(=O)O)cc1)c1ccccc1
The “hERG current change (%, negative = inhibition) at 10uM” value of the first is lower: -23.1% for the first, 25.7% for the second.

Compared with `COc1cc(OC)nc(/N=C/NO)n1`, `COc1ccc(CCNC(=O)c2cccc3ccccc23)cc1OC` is lower in “hERG current change (%, negative = inhibition) at 10uM” value: 9.03% for the first, 7.77% for the second.

First: COc1ccc(NCN2C(=O)CCC2=O)cc1
Second: COc1ccc(NC(=O)c2sccc2SCC#N)cc1
The “hERG current change (%, negative = inhibition) at 10uM” value of the first is lower: 2.65% for the first, 5.33% for the second.

First: COc1ccc(NC(=O)Cn2nnc(-c3ccccc3NS(=O)(=O)c3ccccc3)n2)cc1
Second: O=C(NCc1ccncc1)c1ccc(NS(=O)(=O)c2ccccc2)cc1
The “hERG current change (%, negative = inhibition) at 10uM” value of the first is lower: 3.03% for the first, 7.16% for the second.

Compared with `NC(=O)C(=O)N/N=C/c1c2ccccc2cc2ccccc12`, `O=c1c2c(-c3ccccc3)csc2ncn1/N=C/c1c2ccccc2cc2ccccc12` is higher in “hERG current change (%, negative = inhibition) at 10uM” value: -11.1% for the first, -11% for the second.

First: c1ccc(-c2cn(C[C@H]3CC[C@H](Cn4cc(-c5ccccn5)nn4)O3)nn2)nc1
Second: CC(C)Nc1nc(-c2ccccn2)nc(-c2ccccc2)c1C#N
The “hERG current change (%, negative = inhibition) at 10uM” value of the first is lower: -9.3% for the first, 26.6% for the second.

First: O=C1C2C3C=CC(CC3)C2C(=O)N1c1ccc(Br)cc1[N+](=O)[O-] (stereo not drawn)
Second: O=C(Nc1ccc2nc3n(c(=O)c2c1)CCCC3)c1cccc([N+](=O)[O-])c1
The “hERG current change (%, negative = inhibition) at 10uM” value of the first is higher: 19.4% for the first, -18.9% for the second.

Compared with `Cc1ccc(OC(C)C(=O)Nc2ccccc2C(=O)NCc2cccnc2)cc1C` (stereo not drawn), `COc1ccc(S(=O)(=O)NC(C)C(=O)NCc2cccnc2)cc1Cl` (stereo not drawn) is higher in “hERG current change (%, negative = inhibition) at 10uM” value: -16.9% for the first, 10.4% for the second.

Going from `CCCC(=O)Nc1cnc(NC(=O)c2cccc(F)c2)cc1C` to `CCCN(CC(=O)Nc1ccccc1C)C(=O)c1oc2ccc(OCC)cc2c1C`, the “hERG current change (%, negative = inhibition) at 10uM” value falls from -6.18% to -25.9%.

Compared with `C=CCn1c(O)c(N=NC(=S)Nc2ccccc2F)c2ccccc21`, `CN(Cc1ccccc1)C(=S)NC(=O)c1ccccc1` is lower in “hERG current change (%, negative = inhibition) at 10uM” value: 16.2% for the first, 1.34% for the second.

Compared with `CCOc1cc(C(=O)NCCCn2ccnc2)cc(OCC)c1OCC`, `COc1cc(CNc2ncc(-c3ccc(Cl)cc3)n2C)cc(OC)c1OC.O=C(O)C(=O)O` is lower in “hERG current change (%, negative = inhibition) at 10uM” value: -0.536% for the first, -66.9% for the second.

Going from `O=C1N(c2ccccc2)C(c2ccccc2)N2CCCN12` (stereo not drawn) to `CC1Cc2ccccc2N1C(=O)Cn1cnc2ccccc2c1=O` (stereo not drawn), the “hERG current change (%, negative = inhibition) at 10uM” value rises from 1.78% to 21.8%.

First: CCN(CC)CC(O)COc1ccccc1C(=O)CCc1ccccc1 (stereo not drawn)
Second: CC(C)C[C@H](NC(=O)c1nc[nH]c1C(=O)N1CCc2ccccc2C1)C(=O)OCc1ccccc1
The “hERG current change (%, negative = inhibition) at 10uM” value of the first is higher: -3.49% for the first, -4.26% for the second.

Going from `C/C(=N\NC(=O)CN(c1ccccc1Br)S(C)(=O)=O)c1cccs1` to `O=C(NNS(=O)(=O)c1ccccc1[N+](=O)[O-])c1ccccc1Cl`, the “hERG current change (%, negative = inhibition) at 10uM” value rises from 20.4% to 27.9%.

First: Cc1cc(C)c2nc(NC(=O)c3cc(C)on3)sc2c1
Second: COc1ccccc1C(=O)Nc1nnc(-c2ccc(F)cc2)s1
The “hERG current change (%, negative = inhibition) at 10uM” value of the first is higher: 5.04% for the first, -14.1% for the second.

Compared with `Cc1ccc(OCc2ccc(C(=O)O)o2)cc1C`, `CCCCN(C(=O)c1ccc(COc2ccccc2)o1)c1c(N)n(CC(C)C)c(=O)[nH]c1=O` is higher in “hERG current change (%, negative = inhibition) at 10uM” value: 1.76% for the first, 8.93% for the second.

First: CCCOc1ccc(N2CC(C(=O)Nc3ncccc3C)CC2=O)cc1 (stereo not drawn)
Second: Cc1ccc(OCCn2c(NC(=O)c3ccco3)nc3ccccc32)cc1
The “hERG current change (%, negative = inhibition) at 10uM” value of the first is lower: -8.03% for the first, -5.24% for the second.

Going from `O=C(NCc1ccccc1)NC1(C(=O)Nc2ccc3c(c2)OCCO3)CCCCC1` to `O=C(NCc1ccccc1)c1ccc(Cl)cc1[N+](=O)[O-]`, the “hERG current change (%, negative = inhibition) at 10uM” value rises from 2.32% to 11.1%.

First: CC(C)(C)c1ccc(Oc2coc3cc(OCC(=O)O)ccc3c2=O)cc1
Second: COc1ccc(C(=O)CSc2nnc(C(CO)NC(=O)c3ccc(OC)cc3)n2C)cc1 (stereo not drawn)
The “hERG current change (%, negative = inhibition) at 10uM” value of the first is lower: -20.9% for the first, 4.9% for the second.

Going from `CCN(CC)CCCn1c2c(c(SCC(=O)Nc3nc4ccccc4s3)nc1=O)CCC2` to `CC(C)Cn1cnc2c1c(=O)n(CC(=O)NN)c(=O)n2Cc1ccccc1`, the “hERG current change (%, negative = inhibition) at 10uM” value rises from -71.2% to 15.4%.

First: CCOC(=O)CC(C#N)c1c[nH]c2ccccc12 (stereo not drawn)
Second: O=C(CN1CCOCC1)c1c[nH]c2ccccc12
The “hERG current change (%, negative = inhibition) at 10uM” value of the first is higher: 20.6% for the first, 5.71% for the second.

Going from `COc1ccc(CN2CCN(Cc3csc(C(C)=O)c3)CC2CCO)c(C)c1C` (stereo not drawn) to `OCCC1CN(Cc2cccn2-c2nccs2)CCN1CCc1ccccc1` (stereo not drawn), the “hERG current change (%, negative = inhibition) at 10uM” value falls from -58.1% to -73.6%.

First: COc1ccc(-c2ccc(C(=S)N3CCN(C(C)=O)CC3)o2)cc1
Second: CCC(=O)c1cc(F)ccc1OCC(=O)N1CCN(c2ccc(F)cc2)CC1
The “hERG current change (%, negative = inhibition) at 10uM” value of the first is higher: -40.5% for the first, -72.1% for the second.

Compared with `COc1ccc(C2c3ccc(O)cc3Oc3ncn4nc(-c5ccccn5)nc4c32)cc1OC` (stereo not drawn), `COc1cc(C2NC(=S)NC3=C2CCc2ccccc23)cc(OC)c1OC` (stereo not drawn) is higher in “hERG current change (%, negative = inhibition) at 10uM” value: -71.3% for the first, 9.58% for the second.

Compared with `COc1ccc(OCCCC(=O)Oc2ccc(OC)cc2)cc1`, `COc1ccc(NC(=O)CCCn2cc([N+](=O)[O-])cn2)cc1` is lower in “hERG current change (%, negative = inhibition) at 10uM” value: 0.9% for the first, -6.09% for the second.

Compared with `CN(C)c1ccc(/C=N/NS(=O)(=O)c2ccc(Br)cc2)cc1`, `Cc1cccc(NS(=O)(=O)c2ccc(C(=O)NCC(c3ccccc3)N(C)C)cc2)c1C` (stereo not drawn) is lower in “hERG current change (%, negative = inhibition) at 10uM” value: 5.14% for the first, -4.98% for the second.

Going from `N#Cc1c(C(F)(F)F)cc(-c2ccccc2)[nH]c1=O` to `O=c1[nH]c(=S)[nH]c(O)c1/C=C1/C=c2ccccc2=N1`, the “hERG current change (%, negative = inhibition) at 10uM” value rises from 14.6% to 19.1%.

Going from `COCCN(C(=O)C(C)C)c1nnc(-c2ccc(C(C)(C)C)cc2)s1` to `O=C(CSc1ccc(-c2ccc(F)cc2)nn1)N1CCOCC1`, the “hERG current change (%, negative = inhibition) at 10uM” value falls from 30.1% to -17.4%.

First: Cc1ccc(CNS(=O)(=O)c2c(C)[nH]c(C)c2C(=O)N2CCCCC2)cc1
Second: Cc1ccc(S(=O)(=O)NCc2ccc(C(=O)NC3CCCCC3)cc2)cc1
The “hERG current change (%, negative = inhibition) at 10uM” value of the first is lower: 6.48% for the first, 15.9% for the second.

Going from `O=C(NCC(=O)N(c1cccnc1)C(C(=O)NC1CCCCC1)c1ccccc1)c1ccco1` (stereo not drawn) to `C/C(=N\NC(=S)NCc1ccccc1)C1CCCCC1`, the “hERG current change (%, negative = inhibition) at 10uM” value falls from 30.4% to 14.7%.

Going from `COc1cccc2cc(C(=O)NCC3CCCO3)c(=O)oc12` (stereo not drawn) to `COc1ccc(NC(=O)CC2COc3ccccc3O2)c(OC)c1` (stereo not drawn), the “hERG current change (%, negative = inhibition) at 10uM” value falls from 12.4% to -9.48%.

Compared with `O=[N+]([O-])c1ccc(Cl)cc1`, `CN(C)S(=O)(=O)c1ccc(N2CCCC2)c(C(=O)NCC(=O)Nc2ccc(F)c(F)c2)c1` is lower in “hERG current change (%, negative = inhibition) at 10uM” value: 10.9% for the first, -4.9% for the second.

Going from `S=c1nc2ccccc2c2nc(-c3cccnc3)[nH]n12` to `Cc1occc1-c1nnc(SCC(=O)Nc2ccccc2-c2ccccc2)n1C`, the “hERG current change (%, negative = inhibition) at 10uM” value falls from 14.6% to -30.7%.

First: CCn1c(SCC(=O)c2c(N)n(C3CC3)c(=O)[nH]c2=O)nnc1-c1ccoc1C
Second: C=CCn1c(SCC(=O)N2CCN(c3ccc(F)cc3)CC2)nnc1-c1cccs1
The “hERG current change (%, negative = inhibition) at 10uM” value of the first is higher: 11.3% for the first, -68.9% for the second.

Going from `Fc1ccccc1OCC1CCCN(Cc2nc(CC3CC3)no2)C1` (stereo not drawn) to `CCC(C)(C)n1nnnc1C(c1ccccc1F)N1CCC(C(N)=O)CC1` (stereo not drawn), the “hERG current change (%, negative = inhibition) at 10uM” value rises from -9.41% to 1.53%.

Compared with `COc1cccc(CN2CCN(Cc3nc(-c4cccc(F)c4F)oc3C)CC2=O)c1`, `COc1ccccc1S(=O)(=O)Cc1ccc(C(=O)NCCCN2CCN(c3ccc(F)cc3)CC2)o1` is lower in “hERG current change (%, negative = inhibition) at 10uM” value: -32.3% for the first, -79.2% for the second.

First: CN1CCc2c(sc3c2C(=O)NC(c2ccc4c(c2)OCO4)N3)C1 (stereo not drawn)
Second: O=C(N/N=C/c1ccncc1)c1ccc2c(c1)OCO2
The “hERG current change (%, negative = inhibition) at 10uM” value of the first is lower: -16.5% for the first, 10.8% for the second.

Going from `CCC(C)Sc1nc2c(cnn2-c2ccc(F)cc2)c(=O)[nH]1` (stereo not drawn) to `COc1ccc(Nc2nnc(SCC(=O)Nc3ccc4[nH]c(=O)[nH]c4c3)s2)cc1`, the “hERG current change (%, negative = inhibition) at 10uM” value rises from 14.6% to 17.5%.

Going from `CCOC(=O)C1CCCCN1Cc1ccc(OC)c(OC)c1OC` (stereo not drawn) to `COC(=O)C1=C(C(=O)OC)[C@@H]2Nc3ccccc3[C@@]23C[C@@H](C(=O)OC)N(C(C)=O)C3=N1`, the “hERG current change (%, negative = inhibition) at 10uM” value rises from -27.9% to -1.06%.

First: CCOC(=O)N1CCN(C(=O)c2c[nH]c3ccc(S(=O)(=O)N(C)c4cccc(C)c4)cc3c2=O)CC1
Second: COC(=O)[C@]1(CC(C)C)N[C@H](c2ccc(-c3cccc(Cl)c3)cc2)[C@@H]2C(=O)N(C)C(=O)[C@@H]21.O=C(O)C(F)(F)F
The “hERG current change (%, negative = inhibition) at 10uM” value of the first is higher: 18.9% for the first, 1.22% for the second.

Compared with `CCC(C)Nc1nc2c(c(=O)[nH]c(=O)n2C)n1CCC(C)C` (stereo not drawn), `O=C(O)CCc1n[nH]c(=S)[nH]c1=O` is higher in “hERG current change (%, negative = inhibition) at 10uM” value: 0.589% for the first, 5.81% for the second.

Compared with `O=C(NNC(=O)C1CCCCC1)c1ccncc1`, `COc1ccc(Nc2nc3nonc3nc2N2CCCCC2)cc1` is lower in “hERG current change (%, negative = inhibition) at 10uM” value: 4.14% for the first, -24.2% for the second.

Compared with `CCCC(NC(=O)CNC(=O)C(C)(C)C)C(=O)O` (stereo not drawn) (Piv-Gly-[ξNva]-OH), `O=C(COC(=O)Cc1cn2ccsc2n1)NC12CC3CC(CC(C3)C1)C2` is lower in “hERG current change (%, negative = inhibition) at 10uM” value: 4.3% for the first, -8.48% for the second.

In the case of `C1CCCCC1.OCCN1CCN(C2Cc3cc(Cl)ccc3Sc3ccc(Cl)cc32)CC1` (stereo not drawn), the “hERG current change (%, negative = inhibition) at 10uM” value is reported as 9.86%.
